Results from article PMC4336329 (PLoS ONE, 2015).
In all, about 310,000 compounds went through this assay and about 2,200 (0.71%) showed an effect of 50% or more. The effect is printed as a negative number. The list shows a part of the results.

biological target: human ether-à-go-go-related gene (hERG) potassium channel (human, UniProt Q12809); assay: primary screen, population patch clamp on CHO cells stably expressing hERG
Sequence (Q12809 whole entry, looked up): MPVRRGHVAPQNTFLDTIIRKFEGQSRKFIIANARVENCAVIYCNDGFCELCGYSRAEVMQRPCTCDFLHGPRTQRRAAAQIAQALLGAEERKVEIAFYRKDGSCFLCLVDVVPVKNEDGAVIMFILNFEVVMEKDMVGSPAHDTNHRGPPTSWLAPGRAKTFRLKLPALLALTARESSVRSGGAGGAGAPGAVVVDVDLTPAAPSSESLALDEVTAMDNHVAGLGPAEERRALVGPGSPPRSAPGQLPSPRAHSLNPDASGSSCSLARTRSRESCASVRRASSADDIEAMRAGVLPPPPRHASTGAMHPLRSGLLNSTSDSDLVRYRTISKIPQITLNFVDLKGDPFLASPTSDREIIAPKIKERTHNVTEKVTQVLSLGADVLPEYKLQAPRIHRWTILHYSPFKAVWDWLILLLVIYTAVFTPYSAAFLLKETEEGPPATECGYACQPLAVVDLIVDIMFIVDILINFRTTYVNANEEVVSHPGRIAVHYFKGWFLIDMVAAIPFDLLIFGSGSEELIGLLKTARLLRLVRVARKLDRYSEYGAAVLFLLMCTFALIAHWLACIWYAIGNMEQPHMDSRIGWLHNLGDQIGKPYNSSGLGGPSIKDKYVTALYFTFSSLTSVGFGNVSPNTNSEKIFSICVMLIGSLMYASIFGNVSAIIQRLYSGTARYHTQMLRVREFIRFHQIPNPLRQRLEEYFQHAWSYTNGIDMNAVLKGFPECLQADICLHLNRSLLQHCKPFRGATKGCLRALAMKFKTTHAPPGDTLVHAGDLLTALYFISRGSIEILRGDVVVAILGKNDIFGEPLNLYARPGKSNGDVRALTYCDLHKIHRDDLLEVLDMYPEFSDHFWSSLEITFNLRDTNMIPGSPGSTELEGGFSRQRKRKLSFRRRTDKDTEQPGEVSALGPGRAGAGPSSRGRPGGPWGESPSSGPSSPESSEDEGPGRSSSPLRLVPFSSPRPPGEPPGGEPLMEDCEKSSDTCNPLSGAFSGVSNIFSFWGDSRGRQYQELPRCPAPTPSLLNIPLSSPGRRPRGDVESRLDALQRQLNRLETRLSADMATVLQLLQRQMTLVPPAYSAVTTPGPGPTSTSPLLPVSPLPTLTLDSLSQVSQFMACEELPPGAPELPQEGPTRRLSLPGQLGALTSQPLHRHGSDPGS

SMILES | hERG current change (%, negative = inhibition) at 1uM
COC(=O)CN1C2(C#N)CCCCC2CC2CCCCC21C#N (centres unmarked) | 2.8%
COC(=O)c1ccccc1-n1c(CCC(=O)O)ccc1-c1ccc(F)cc1 | 11%
CCOC(=O)C1=NN(c2ccccc2)C2=NC(C)=C(C(=O)OC)C(c3ccc(C)cc3)N12 (centres unmarked) | 2.98%
COc1ccc(N2CCN(C3CCCN(Cc4ccc(F)cc4)C3)CC2)cc1 (centres unmarked) | 0.279%
COc1cc(OC)c(/C=N/N2CCN(c3ccccc3OC)CC2)c(OC)c1 | 11.2%
O=C(Nc1cccc(C(F)(F)F)c1)c1cc2ncc(Br)cn2n1 | 13.8%
COc1ccccc1NC(=S)NNC(=O)c1c(Cl)c(C)nn1C | 13.5%
Cc1ccc(CNc2nc(C)nc3sc4c(c23)CCC4)cc1 | -1.86%
CCOC(=O)N1CCN(C(=O)CN(C2CCCCC2)S(=O)(=O)c2ccc(F)cc2)CC1 | 4.7%
Cc1nc2ccccc2c2nc(N)nn12 | -7.08%
CCN1CCCC1CNc1ccc(S(C)(=O)=O)cc1[N+](=O)[O-] (centres unmarked) | -10%
COc1ccc2nc3ccccc3nc2c1NC(=O)c1ccccc1Cl | -1.38%
CCC1CCCCN1C(=O)c1ccc(OC2CCN(C(=O)COC)CC2)cc1 (centres unmarked) | 7.56%
O=C(CCCCCN1C(=O)c2ccccc2C1=O)Nc1cccc(O)c1 | 9.29%
Cc1cc(C(=O)CSc2ncnc3ccccc23)c(C)n1C1CC1 | 12%
O=C(COc1ccc(Cl)cc1)Nc1cccc(S(=O)(=O)NC2=NCCCCC2)c1 | -3.24%
Cc1ccc(N(CC(O)CN2CCOCC2)S(=O)(=O)c2ccc([N+](=O)[O-])cc2)cc1 (centres unmarked) | -49.1%
CCc1cc(=O)oc2cc(OCc3nn[nH]n3)ccc12 | 7.16%
C[N+](C)(C)CC/C=C1/c2ccccc2CSc2ccccc21.[I-] | 9.18%
CCOC(=O)c1ccc(NC(=O)CC2S/C(=N/N=C3/NC(=O)CS3)NC2=O)cc1 (centres unmarked) | 14.4%
Cc1noc(-c2ccc(C(F)(F)F)cc2)c1NC(=O)Nc1ccc(Cl)cc1 | 18.7%
CNNC(=S)NC1CC2CC1C1C=CCC21 (centres unmarked) | 12.5%
CCn1ccnc1CN1CCCC(C(=O)c2ccc(SC)cc2)C1 (centres unmarked) | -12.7%

SMILES | hERG current change (%, negative = inhibition) at 1uM
NS(=O)(=O)c1ccc(CCNC(=O)C2Cc3ccccc3CN2C(=O)c2ccco2)cc1 (centres unmarked) | 6.99%
S=c1nc(-c2ccccc2)n(CCCN2CCOCC2)c2c1CCCC2 | 2.38%
Cc1ccc(S(=O)(=O)CCC(=O)Nc2sccc2C#N)cc1 | 6.13%
CCCCCCc1cc2cc(-c3nnc(-c4cc(OC)c(OC)c(OC)c4)o3)c(=O)oc2cc1O | 6.29%
COc1ccc(-c2c(C)nn3c(N4CCCCCC4)cc(C)nc23)cc1OC | 11%
COc1cc(C(=S)N2CCCC2)ccc1OS(=O)(=O)c1ccc(NC(C)=O)cc1 | 0.642%
COC(=O)C1=NN(c2ccc(OC)cc2)C2C(=O)N(c3ccccc3OC)C(=O)C12 (centres unmarked) | 11.3%
C=CCNC(=O)CN1C(=O)NC(C)(c2ccc(OC)cc2)C1=O (centres unmarked) | -0.0235%
O=C(/C=C/c1ccccc1[N+](=O)[O-])N1CCN(c2ccc(F)cc2)CC1 | -14.5%
Clc1ccc(OCCn2cnc(Cl)c2Cl)cc1 | 4.77%
S=C(NCCc1ccccc1)N1CCCC1 | 13.1%
CCCCNC(=S)Nc1cccc(C(C)=O)c1 | 3.07%
CCN(CC)S(=O)(=O)c1ccc(S(=O)(=O)N2CCCC2C(=O)O)cc1 (centres unmarked) | 2.77%
O=S(=O)(NCc1ccccc1Cl)c1cnc[nH]1 | 17.3%
c1ccc2c(c1)ncn2Cc1nnc2sc(-c3ccncc3)nn12 | -2.74%
O=C1OCCC1Sc1nnnn1-c1ccccc1 (centres unmarked) | -5.01%
S=C(NC1CCCCC1)N1CCOCC1 | 13%
O=C(Nc1nccs1)c1cc(S(=O)(=O)N2CCOCC2)ccc1Cl | 4.47%
COc1cccc(NC(=O)Nn2cnnc2)c1 | 19.4%
Cn1c(=O)[nH]c(=O)c2c1nc(N1CCOCC1)n2CCN1CCOCC1 | 26.3%
CC(C)[C@H](NC(=O)NCCC1=CCCCC1)C(=O)O | 7.62%
CCC(CC)NC(=O)COC(=O)c1ccc(OCc2ccc(C(C)=O)cc2OC)c(OC)c1 | 10.9%
CCn1nc(C)cc1C(=O)n1nc(C)c(Sc2ncccn2)c1C | 6.34%

SMILES | hERG current change (%, negative = inhibition) at 1uM
O/N=C/c1cccc[n+]1CCCCCC[n+]1ccccc1/C=N/O.[Br-] | 18%
Cc1ccc(N2C(=O)C3ON(c4ccccc4)C(c4ccncc4)C3C2=O)cc1 (centres unmarked) | -4.9%
COc1cc2c(cc1NC(=O)/C=C/c1ccc([N+](=O)[O-])cc1)oc1ccccc12 | 13.6%
Cc1ccccc1OCCNc1cc(N2CCN(CCO)CC2)ccc1[N+](=O)[O-] | 2.6%
NNC(=O)c1cccnc1Oc1ccccc1 | 4.74%
COC(=O)CNC(c1ccccc1)c1cc(C)ccc1NS(=O)(=O)c1ccc(C)cc1 (centres unmarked) | 2.31%
O=C(NN1C(=O)C2C3C=CC(C4CC34)C2C1=O)c1ccc(Cl)cc1Cl (centres unmarked) | 11.5%
O=C(CSc1ccccn1)Nc1ccc2c(c1)oc1ccccc12 | 13.8%
O=P(c1ccccc1)(c1ccccc1)c1cc(S(=O)(=O)[O-])ccc1O.[Na+] | 13.5%
Cc1noc(C)c1COc1ccc(C(=O)NNC(=O)c2ccccc2O)cc1 | -5.55%
COc1ccc(-c2nnc(NC(=O)c3cc(C)on3)s2)cc1 | -4.58%
COc1cc(/C=C2/C(=O)N(c3ccc(Br)cc3)N=C2C)cc([N+](=O)[O-])c1O | 18.1%
O=C(N/N=C1\CCSc2ccc(F)cc21)c1cccnc1 | 9.55%
COc1ccccc1CNC(=O)CCCn1c(=O)c2ccccc2n(CC(=O)NC2CCCC2)c1=O | 10.1%
CCOC(=O)c1ccc(-c2ccc(/C=N/NC(=O)CN(c3ccccc3Cl)S(C)(=O)=O)o2)cc1 | 11.2%
CCN(c1cccc(C)c1)S(=O)(=O)c1ccc2c(c1)NC(=O)CS2 | 8.05%
COc1c(C)cc(S(=O)(=O)NC2CC(C)(C)NC(C)(C)C2)c(C)c1C | 5.89%
CC1(c2ccc(OC(F)F)cc2)NC(=O)N(CC(=O)N2CCN(C(=O)c3ccco3)CC2)C1=O (centres unmarked) | 9.44%
Cc1ccc(C(=O)Oc2cc(C)[nH]c(=O)c2[N+](=O)[O-])cc1 | 11.7%
COc1ccccc1CCNC1CCCCCC1 | 13.2%
CN(C)/C=C/C(=O)c1ccc(S(=O)(=O)c2ccccc2)cc1 | 9.95%
O=C(NCc1ccccc1)c1ccccc1CO | 8.01%
Cc1ccc(CN2CC(C(=O)NCC(=O)Nc3c(C)cccc3C)CC2=O)cc1 (centres unmarked) | 7.27%

SMILES | hERG current change (%, negative = inhibition) at 1uM
OCC[C@@H]1C[C@H](O)[C@@H](O)[C@@]2(Cc3ccccc3O2)O1 | 17.5%
Cc1cc([N+](=O)[O-])nn1CC(=O)NCc1nc2ccccc2[nH]1 | 5.47%
COc1ccc(N(C(=O)c2snc(C(N)=O)c2N)C(C(=O)NCC2CCCO2)c2ccc3ncccc3c2)cc1OC (centres unmarked) | 12.5%
CC1CCCCC1NC(=S)NC(=O)c1sc2ccccc2c1Cl (centres unmarked) | 6.28%
COc1ccccc1N1CCN(CC(=O)Nc2cccc(F)c2)CC1 | -2.25%
O=C(NCc1ccccc1Cl)c1cc(=O)[nH]c2ccccc12 | 10.3%
O=C(Nc1cccc(Cl)c1)c1ccc(=O)[nH]n1 | 7.41%
CC1CN(c2ccc(NC(=S)NNCCC#N)cc2)CC(C)O1 (centres unmarked) | 12.2%
Cc1ccc(C(=O)OCC(=O)NC2CCCC(C)C2C)cc1S(=O)(=O)N1CCCCC1 (centres unmarked) | 11.4%
COc1ccccc1CNC(=O)Cc1ccc(Br)cc1 | 6.15%
Cn1c(SCc2ccccc2Cl)nc2c1c(=O)[nH]c(=O)n2C | 13.6%
C=CCSc1nnc(NC(=O)C2CC(=O)N(Cc3ccc(C)cc3)C2)s1 (centres unmarked) | -2.81%
CSC1=NC(=O)/C(=C/c2ccc(SC)cc2)S1 | 11.3%
CCOC(=O)c1ccccc1NC(=O)c1ccccc1N(C)S(C)(=O)=O | -4.08%
O=C(CP(=O)(c1ccccc1)c1ccccc1)Nc1cccc(CP(=O)(c2ccccc2)c2ccccc2)c1 | 14.1%
COC(=O)c1ccc(COc2cccnc2[N+](=O)[O-])cc1 | 7.21%
CCOC(=O)/C(C#N)=C/Nc1ccsc1C(=O)OC | 8.98%
S=C(Nc1ccc2c(c1)OCO2)NC1CCN(Cc2ccccc2)CC1 | 12.4%
CCOC(=O)C1CN(S(=O)(=O)c2ccc(OC)cc2)c2cc(Cl)ccc2O1 (centres unmarked) | 8.42%
CC1CCN(C(=O)c2ccc3c(=O)n4c(nc3c2)CCCCC4)CC1 | 9.52%
